According to the RNAGym collection of RNA variant scans (doi:10.7554/elife.90254):
Read counts are not given, so values of variants with three or more changes are uncertain.

B1: LINE1-mini (parent)
chain: GGCAGAGCUCAACACAGCGUGGCAAAGUGGCUGUGGCUAGACUGCC

Variants of: B1
Assay: self-cleavage, relative activity (ratio to wild type); higher = more cleavage; in vitro, sequencing; the parent is a self-cleaving ribozyme
In the case of G2C A4C G7U A24G G35C, the self-cleavage is reported as 0.13.
C18A C23U C31A C42A gave a self-cleavage of 0.01.
With G2C C10G C31G the self-cleavage was 0.01.
Variant G2C C3U A14C C18U U20A G33U G35C has a self-cleavage of 0.05.
In the case of C3G A11C C13A C18U U32A G36A, the self-cleavage is reported as 0.03.
In the case of U9C A16U G17C G22C G27A U32G G44U, the self-cleavage is reported as 0.
For A6U U9G G33U, the self-cleavage was 0.01.
For C23G U28G G35U C37G, the self-cleavage was 0.02.
With G1U G19A G44U the self-cleavage was 0.25.
With G2U U9G A24U the self-cleavage was 0.01.
G2C G19A U34C C37U gave a self-cleavage of 0.04.
With G2A C10A A14G U20C U34A C45G the self-cleavage was 0.05.
Work on A4U A16G G27C G40C yielded a self-cleavage of 0.01.
For G17U C31G C46U, the self-cleavage was 0.41.
Variant A25U G27A G30U has a self-cleavage of 1.39.
For C13A G22U G30A, the self-cleavage was 0.2.
Variant G2A U9G C18G C45U has a self-cleavage of 0.19.
C3U A4U G5U C10G G27C C31U gave a self-cleavage of 0.02.
With C23A A25U C37U U38A G44A C45G the self-cleavage was 0.04.
With G5U C23A U28C the self-cleavage was 0.04.
Variant C13A A24U C31G U34A has a self-cleavage of 0.11.
In the case of C15G A16U G35A, the self-cleavage is reported as 0.03.
With G5C G21C C37A the self-cleavage was 0.02.
In the case of C3U G5U C46U, the self-cleavage is reported as 0.04.
Variant A6C C10U C46A has a self-cleavage of 0.07.
In the case of G2C G27A C31A G33A G36U, the self-cleavage is reported as 0.03.
A16U G22C G36A gave a self-cleavage of 0.06.
With C8U C15A U43A the self-cleavage was 0.21.
Variant G22C C37A G40A has a self-cleavage of 0.33.
Work on A12G A16U G19U yielded a self-cleavage of 0.03.
In the case of C3U A4U C13G A14U, the self-cleavage is reported as 0.11.
Variant G5A A14C G19U U34A C42G has a self-cleavage of 0.03.
G1U A26G G33A C37G showed a self-cleavage of 0.03.
With G7A C15A A41U the self-cleavage was 0.25.
Work on G1C C3U A11U U38C C45U C46G yielded a self-cleavage of 0.
With C3A G7A C18G U34C C37A the self-cleavage was 0.08.
In the case of G27C G30U G35U G36C, the self-cleavage is reported as 0.12.
G5A C10U U32G gave a self-cleavage of 0.05.
With G7C G36U G40A U43C the self-cleavage was 0.03.
With G7U C8G G19U G21A C23A A25C G40U the self-cleavage was 0.05.
Variant U28G C31U G35A C46A has a self-cleavage of 0.02.
G1C G19U G35C U43G G44A showed a self-cleavage of 0.04.
With C8A U9G A11G the self-cleavage was 0.
G2C C3U G22A G33U showed a self-cleavage of 0.18.
C10A U20G U43A showed a self-cleavage of 0.
Work on A12G G19U C31G G33C C37U yielded a self-cleavage of 0.01.
Variant G7A A12U G19U U32C has a self-cleavage of 0.03.
For G2A C3G C8A U32C U38G, the self-cleavage was 0.58.
G7C C8G A11U G21A C31A showed a self-cleavage of 0.02.
In the case of A6U G33C U34C, the self-cleavage is reported as 0.01.
C8A C15U C31A showed a self-cleavage of 0.19.
For G5U G17U U32G, the self-cleavage was 0.01.
C3G G5U A12U A26C G36C A41G U43C gave a self-cleavage of 0.12.
In the case of G2A G27C G29A C45G, the self-cleavage is reported as 0.53.
For G21C A25U G33A, the self-cleavage was 0.02.
With A11U A14G G29A C37U the self-cleavage was 0.02.
G33A A41G U43G showed a self-cleavage of 0.01.
With G5U G36U C45A the self-cleavage was 0.14.
For G5C C10A G19C A41C, the self-cleavage was 0.01.
With G5U A11G A12G the self-cleavage was 0.02.
With A11C A14C U34A C42U the self-cleavage was 0.02.
For C3G C13A U28A G33A, the self-cleavage was 0.28.
In the case of A26C G27C U28A, the self-cleavage is reported as 0.18.
With G2U G7C A24U U38A C45G the self-cleavage was 0.04.
G22C A25G G35U showed a self-cleavage of 0.11.
A14U U20G U28G C31U C42G showed a self-cleavage of 0.
Work on A6U G7C A24G A26G G40U yielded a self-cleavage of 0.27.
Work on C10U C23A A25U yielded a self-cleavage of 0.07.
In the case of C3G C15A U20C U43C, the self-cleavage is reported as 0.03.
Work on C3U C8U C37U yielded a self-cleavage of 0.71.
For A4U C8G C31U, the self-cleavage was 0.02.
For C3U G21U G22A C42A, the self-cleavage was 0.09.
A14C G17A G27C C42G gave a self-cleavage of 0.02.
Variant G19U U28A C46G has a self-cleavage of 0.68.
Work on A6C C10A U20C yielded a self-cleavage of 0.02.
Work on C10U G21U G30U yielded a self-cleavage of 1.12.
A4U G19A A25C G30U gave a self-cleavage of 0.1.
For G7U A12C U32A, the self-cleavage was 0.02.
A14C C15G G22A C37G showed a self-cleavage of 0.05.
With C15U U20C G36U the self-cleavage was 0.14.
G1U C13G A39U gave a self-cleavage of 0.02.
For A4C U43G C45A, the self-cleavage was 0.06.
With G5U G19U C31A G33U the self-cleavage was 0.16.
For G5C C37U G44C, the self-cleavage was 0.03.
With C3U A6C A11C G21C G22U U34G the self-cleavage was 0.01.
For G21C C23A U34G C45U, the self-cleavage was 0.12.
Work on A4C U20A A39U C45A yielded a self-cleavage of 0.02.
For U9G G29A A41U, the self-cleavage was 0.11.
With A4C C8A G35U the self-cleavage was 0.22.
For C13G A16G A39U, the self-cleavage was 0.03.
In the case of G2A A6C C15G G22U U34A, the self-cleavage is reported as 0.01.
A12C A25U G30U showed a self-cleavage of 0.
In the case of C10G C23A G33C C37U, the self-cleavage is reported as 0.
In the case of C10A A12C C13U U28C, the self-cleavage is reported as 0.01.
U32G G33C G44U showed a self-cleavage of 0.08.
In the case of C10A G30C C31A, the self-cleavage is reported as 0.03.
A6C U9A C31G U34C showed a self-cleavage of 0.
C3G C10G G21C C23U showed a self-cleavage of 0.04.
Variant A12U C13G C18U A25U has a self-cleavage of 0.06.
Work on C8A A12G A14C yielded a self-cleavage of 0.05.
With G1A A4G G33C G35U the self-cleavage was 0.07.
Variant A4C C8A G44C has a self-cleavage of 0.21.
Variant G5A G7C G17A has a self-cleavage of 0.03.
Variant G2U G27A A41U has a self-cleavage of 0.1.
G2U C13A C23U U28C G44U showed a self-cleavage of 0.01.
With A6U C10G U28A the self-cleavage was 0.01.
For U9G C10U C37U, the self-cleavage was 0.02.
Variant U9C C23U C45A has a self-cleavage of 0.
For G1C C10A A39G, the self-cleavage was 0.
Variant A25C A26U G30U has a self-cleavage of 0.08.
Work on G1C C3A C15A yielded a self-cleavage of 0.06.
For U20A C23U G29C, the self-cleavage was 0.29.
Variant A6C A11C A24G has a self-cleavage of 0.01.
Variant U9G A11U G17U G30U has a self-cleavage of 0.02.
C8G U9G U20C G29A showed a self-cleavage of 0.06.
Work on A6G C23G G29C yielded a self-cleavage of 0.03.
For U20G C23G U38G, the self-cleavage was 0.
For U20C G22U A24G G36U, the self-cleavage was 0.05.
A11U G17A G19C C31U G35U showed a self-cleavage of 0.02.
Variant A24G G29U G40U has a self-cleavage of 0.17.
For U9A A12U U20G, the self-cleavage was 0.02.
G1C G5C C10G gave a self-cleavage of 0.02.
Work on A26G C31U U32A G35C C37G yielded a self-cleavage of 0.12.
G17C C31U A41U C46U showed a self-cleavage of 0.02.
For C18U G33U G44U C45U, the self-cleavage was 0.1.
With G1A A6C C8A A26U the self-cleavage was 0.4.
C3G G5U U9G showed a self-cleavage of 0.52.
Work on G1C G2A U20C yielded a self-cleavage of 0.02.
For C8G A12C C23G A25U G27A G29A, the self-cleavage was 0.02.
Variant C10G G30A G35A has a self-cleavage of 0.02.
For A4U G17A U43C, the self-cleavage was 0.01.
Variant G5U A12C A26C C42A C45A has a self-cleavage of 0.08.
G5C C8A G22C A26C G30C G44C showed a self-cleavage of 0.15.
A12G A16C C45A gave a self-cleavage of 0.03.
With G7C A12U A14G G29A G30C C42A C45A C46A the self-cleavage was 0.03.
In the case of G1A A4G G44U, the self-cleavage is reported as 0.09.
Work on C8A C10A A11U C15U A26C G40A G44U yielded a self-cleavage of 0.01.
For A4C C8G G21A U32G, the self-cleavage was 0.04.
C8U U9G A16G G19A G29C gave a self-cleavage of 0.01.
Variant G1A C10U G40C has a self-cleavage of 0.03.
Variant A4C A11C A12C A26U G30C has a self-cleavage of 0.02.
In the case of G1C C10A G17A, the self-cleavage is reported as 0.03.
In the case of C10A A39U C46U, the self-cleavage is reported as 0.35.
For G5C G21U A26G U32C, the self-cleavage was 0.05.
Work on C18U G33U U34A G35U yielded a self-cleavage of 0.03.
In the case of U20C C23U A24U U32G, the self-cleavage is reported as 0.06.
C8U C10U G30U U38G showed a self-cleavage of 0.09.
In the case of A4G A12G C23G G40U A41C, the self-cleavage is reported as 0.02.
U9C A12U G21A gave a self-cleavage of 0.03.
Variant G22U U34C C42U has a self-cleavage of 0.07.
Variant A11U A24C G29U C45A has a self-cleavage of 0.
Work on G27A G40A C42A yielded a self-cleavage of 0.04.
For G19U A26U U38G G40C, the self-cleavage was 0.
Variant C13U C18U C45G has a self-cleavage of 0.01.
G5U G17A G19U C31G showed a self-cleavage of 0.02.
Work on A4C G17U G19U C45G yielded a self-cleavage of 0.02.
In the case of G29A U34G C42G, the self-cleavage is reported as 0.09.
A6U U9A U28G G33U gave a self-cleavage of 0.14.
With G5C A39U U43A the self-cleavage was 0.
In the case of C15G G27U G36U C42U, the self-cleavage is reported as 0.03.
Work on G5C C10U A11G C46A yielded a self-cleavage of 0.02.
A16U G22U G30A U34C G35A G36A C37A C46U gave a self-cleavage of 0.02.
With C8A A14G G35A the self-cleavage was 0.34.
With G7U G19A U20C G30U C37G the self-cleavage was 0.01.
With G22A C31U U34A G40A the self-cleavage was 0.05.
Work on U28A G30A U34G C42U yielded a self-cleavage of 0.03.
With G7A G27U C46A the self-cleavage was 0.29.
